# Results taken from PubChem BioAssay (NCATS).
# This list was built around the results that the source calls inconclusive (neither active nor inactive); the mix of calls is not that of the screen. For some of these results: Potencies of inconclusive entries are left out as doubtful fits. Active and inactive are the calls of the source. Unless noted, calls come from the whole dose curve; as a rule, active = well fitted curve in the direction sought with a large enough effect; inconclusive = small, poorly fitted or top-dose-only effect, or another doubt; inactive = no such curve, though single readings can be large; an effect the other way counts as inactive or inconclusive.
# How the values were obtained:
# [1] = target: Cytochrome P450 2D6 (Homo sapiens) (UniProt P10635); assay: Cytochrome P450 family 2 subfamily D member 6 (CYP2D6) small molecule antagonists: luciferase biochemical (cell-free) qHTS assay (AID 1645840; active = well fitted curve in the direction sought with a large enough effect in the repeat runs; inconclusive = weak or mixed curves; inactive = no such curve, though single readings can be large; an effect the other way counts as inactive or inconclusive; note: nearly all actives have a fitted effect of over 55% in size)
# Chain of UniProt P10635 (P10635 whole entry, looked up): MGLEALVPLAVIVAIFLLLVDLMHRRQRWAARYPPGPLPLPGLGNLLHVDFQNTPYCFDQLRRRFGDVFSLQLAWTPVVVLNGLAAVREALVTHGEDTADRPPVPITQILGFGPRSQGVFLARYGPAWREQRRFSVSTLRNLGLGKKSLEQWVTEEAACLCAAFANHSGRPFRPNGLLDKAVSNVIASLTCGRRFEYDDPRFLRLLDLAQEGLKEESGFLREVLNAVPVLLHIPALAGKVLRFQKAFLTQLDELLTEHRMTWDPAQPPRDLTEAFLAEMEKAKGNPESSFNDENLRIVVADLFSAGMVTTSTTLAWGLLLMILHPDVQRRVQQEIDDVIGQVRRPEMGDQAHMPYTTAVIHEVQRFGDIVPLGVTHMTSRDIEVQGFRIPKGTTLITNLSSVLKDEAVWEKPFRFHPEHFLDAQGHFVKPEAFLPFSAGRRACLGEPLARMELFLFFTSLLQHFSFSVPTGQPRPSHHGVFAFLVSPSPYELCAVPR
# Procedure, shortened: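 P450-Glo CYP2D6 system: proluciferin substrate converted by enzyme to luciferin, read by luminescence proportional to activity. Enzyme-substrate mix with compound 10 min at room temperature, then NADPH regeneration 1 h before detection reagent.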
# [2] = target: Glutathione peroxidase 1 (Homo sapiens) (UniProt P07203); assay: Primary qHTS Assay for Inhibitors of Recombinant Selenoprotein Glutathione Peroxidase 1 (GPX1) (AID 1845191); conditions: activity, negative = inhibition: at 48.8 µM (top of the series); note: nearly all actives have a fitted effect of over 65% in size
# Chain of UniProt P07203 (P07203 whole entry, looked up): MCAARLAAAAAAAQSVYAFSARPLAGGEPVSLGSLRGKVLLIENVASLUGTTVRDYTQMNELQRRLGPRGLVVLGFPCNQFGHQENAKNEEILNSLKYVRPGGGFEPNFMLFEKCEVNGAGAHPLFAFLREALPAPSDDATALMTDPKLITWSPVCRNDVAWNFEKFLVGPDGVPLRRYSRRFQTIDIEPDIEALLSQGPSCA
# Procedure, shortened: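 GR-coupled readout: NADPH consumption tracked by fluorescence, ex 340/em 450 nm, at t=0 and after 15 min at RT. Final mix 10 nM GPX1, 1 mM GSH, 0.5 mM CHP, 0.5 mM NADPH, 100 nM GR, 0.01% BSA, following 30 min enzyme–compound preincubation.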
# [3] = Primary fluorescence-based thiol-reactive (MSTI) qHTS assay for identification of artifact compounds. (AID 1845221);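 note: thiol-reactive compounds lower the probe fluorescence signal; nearly all actives have a fitted effect of over 65% in size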
# Procedure, shortened: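 Thiol-reactive compounds detected by quenching of 4 uM MSTI fluorescence (525/598 nm) after 1 h room-temperature dark incubation in PBS pH 7.4, 2% DMSO. qHTS titration; percent inhibition Hill-fitted against Acetyl-MSTI/MSTI controls.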
# [4] = Primary redox qHTS assay for identification of artifact compounds. (AID 1845223)
# Procedure, shortened: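 Redox-cycling detection via DTT (250 uM final) oxidation coupled to Amplex Red (25 uM)/HRP (250 mU/mL) in HBSS. 15 min preincubation plus 30 min after DTT, room temperature. Ex/Em 525/598 nm; 4-parameter Hill fit against DMSO and 10 uM DA3003.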
# [5] = qHTS of pediatric cancer cell lines to identify multiple opportunities for drug repurposing: Primary screen for SJ-GBM2 cells (AID 1347091)
# Procedure, shortened: (§1)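 Viability measured as metabolically active cells via CellTiter-Glo luminescence following 48 hours of compound exposure, 11-point dilutions in confirmatory testing. 500-1,000 cells/well plated 5 hours before dosing; controls were DMSO and 2.3 µM bortezomib.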
# [6] = qHTS of pediatric cancer cell lines to identify multiple opportunities for drug repurposing: Primary screen for U-2 OS cells (AID 1347096); note: nearly all actives have a fitted effect of over 50% in size
# Procedure, shortened: (§2)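 Viability after 48 h compound treatment at 37C, 500-1,000 cells/well, read as ATP luminescence with CellTiter-Glo. Primary screens used 11-point (MIPE, 0.78 nM-46 µM) or 8-point (NPC, 0.59 nM-46 µM) final concentrations; follow-up screens used 11-point dilutions.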
# [7] = qHTS of pediatric cancer cell lines to identify multiple opportunities for drug repurposing: Primary screen for BT-12 cells (AID 1347101); note: nearly all actives have a fitted effect of over 25% in size
# Procedure, shortened: (§3)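 Cells (500-1,000/well) rested 5 h, then received compounds for 48 h; metabolically active cells were measured by CellTiter-Glo luminescence. Final concentrations spanned up to 46 µM (MIPE, 11-point) or 0.59 nM-46 µM (NPC, 8-point) in primary screens, 11-point in follow-ups.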
# [8] = qHTS of pediatric cancer cell lines to identify multiple opportunities for drug repurposing: Primary screen for Rh18 cells (AID 1347102); note: nearly all actives have a fitted effect of over 65% in size
# Procedure, shortened: as §2
# [9] = qHTS of pediatric cancer cell lines to identify multiple opportunities for drug repurposing: Primary screen for OHS-50 cells (AID 1347103); note: nearly all actives have a fitted effect of over 40% in size
# Procedure, shortened: as §3
# [10] = qHTS of pediatric cancer cell lines to identify multiple opportunities for drug repurposing: Primary screen for Rh30 cells (AID 1347107); note: nearly all actives have a fitted effect of over 75% in size
# Procedure, shortened: as §2
# [11] = qHTS of pediatric cancer cell lines to identify multiple opportunities for drug repurposing: Primary screen for Rh41 cells (AID 1347108); note: nearly all actives have a fitted effect of over 70% in size
# Procedure, shortened: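 Viability was measured as metabolically active cells after 48 hours of treatment, read by CellTiter-Glo luminescence. Compounds were tested at multiple final concentrations, giving concentration-response curves.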
# [12] = test system: Zika virus NS2B-NS3 protease (unlinked complex); assay: Primary screen GU Rhodamine qHTS for Zika virus inhibitors: Unlinked NS2B-NS3 protease assay (AID 1347159); note: nearly all actives have a fitted effect of over 60% in size
# Procedure, shortened: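 In dose–response format, inhibition of unlinked protease (25 nM) was measured with 1.5 microM bis-peptide Rhodamine110 substrate. Aprotinin served as the intraplate control.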
# [13] = qHTS to identify inhibitors of the type 1 interferon - major histocompatibility complex class I in skeletal muscle: primary screen against the NCATS Mechanism Interrogation Plate v5.0 (MIPE) Libary (AID 1347411); conditions: iHSKM cells + IFN-b, HiBiT-tagged MHC-I luminescence, 24 h; series mostly up to 45.8 µM; note: nearly all actives have a fitted effect of over 65% in size
# Procedure, shortened: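 IFN-beta-driven (4 ng/ml) HLA-B-HiBit expression in CRISPR-tagged C25cl48 myoblasts; compounds 11-pt, 1:3, max 46 uM, 24 hr exposure; lytic NanoLuc complementation luminescence.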
# [14] = target: Phospholipid hydroperoxide glutathione peroxidase GPX4 (Homo sapiens) (UniProt P36969); assay: Primary qHTS Assay for Inhibitors of Recombinant Selenoprotein Glutathione Peroxidase 4 (GPX4) (AID 1845192); note: nearly all actives have a fitted effect of over 65% in size
# Chain of UniProt P36969 (P36969 whole entry, looked up): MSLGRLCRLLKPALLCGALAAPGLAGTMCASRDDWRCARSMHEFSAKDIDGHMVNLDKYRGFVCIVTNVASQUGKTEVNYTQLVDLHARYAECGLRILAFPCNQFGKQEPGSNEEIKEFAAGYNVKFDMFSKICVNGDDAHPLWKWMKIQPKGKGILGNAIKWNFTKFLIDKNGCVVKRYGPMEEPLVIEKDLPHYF
# Procedure, shortened: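 Steps: GPX4 plus compound, 30 min RT; add GR/GSH/NADPH master mix; start with cumene hydroperoxide; read 340/450 nm fluorescence at 0 and 15 min. Finals were 200 nM GPX4, 1 mM GSH, 0.5 mM CHP, 0.5 mM NADPH, 100 nM GR.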
# UISO = assay: qHTS assay to identify novel small-molecules to repurpose for Merkel cell carcinoma treatment (AID 1296009); conditions: MCC and control cell lines, CellTiter-Glo viability, 72 h; series mostly up to 46 µM; note: nearly all actives have a fitted effect of over 60% in size
# Procedure, shortened: (§4)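 CellTiter-Glo luminescence after 72 hr compound exposure at 37 degree celsius gave cell viability. Libraries NPC and MIPE were run as 8- and 11-point dose responses; RLUs normalized to DMSO (negative) and no-cell (cytotoxicity) controls.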
# WaGa = assay: as above; conditions: MCC and control cell lines, CellTiter-Glo viability, 72 h; series mostly up to 46 µM
# Procedure, shortened: as §4
# [15] = qHTS of pediatric cancer cell lines to identify multiple opportunities for drug repurposing: Primary screen for DAOY cells (AID 1347090); conditions: DAOY medulloblastoma viability, CellTiter-Glo luminescence, 48 h; activity change, negative = cytotoxic: at 46 µM (top of the series); note: nearly all actives have a fitted effect of over 55% in size
# Procedure, shortened: as §1
# [16] = qHTS of pediatric cancer cell lines to identify multiple opportunities for drug repurposing: Primary screen for SK-N-SH cells (AID 1347098); conditions: SK-N-SH viability, CellTiter-Glo luminescence, 48 h; activity change, negative = cytotoxic: at 57 µM (top of the series); note: nearly all actives have a fitted effect of over 65% in size
# Procedure, shortened: as §3
# [17] = qHTS of pediatric cancer cell lines to identify multiple opportunities for drug repurposing: Primary screen for LAN-5 cells (AID 1347100)
# Procedure, shortened: as §2
# [18] = target: Cytochrome P450 2C9 (Homo sapiens) (UniProt P11712); assay: Cytochrome P450 family 2 subfamily C member 9 (CYP2C9) small molecule antagonists: luciferase biochemical (cell-free) qHTS assay (AID 1645842; active = well fitted curve in the direction sought with a large enough effect in the repeat runs; inconclusive = weak or mixed curves; inactive = no such curve, though single readings can be large; an effect the other way counts as inactive or inconclusive; note: nearly all actives have a fitted effect of over 55% in size)
# Chain of UniProt P11712 (P11712 whole entry, looked up): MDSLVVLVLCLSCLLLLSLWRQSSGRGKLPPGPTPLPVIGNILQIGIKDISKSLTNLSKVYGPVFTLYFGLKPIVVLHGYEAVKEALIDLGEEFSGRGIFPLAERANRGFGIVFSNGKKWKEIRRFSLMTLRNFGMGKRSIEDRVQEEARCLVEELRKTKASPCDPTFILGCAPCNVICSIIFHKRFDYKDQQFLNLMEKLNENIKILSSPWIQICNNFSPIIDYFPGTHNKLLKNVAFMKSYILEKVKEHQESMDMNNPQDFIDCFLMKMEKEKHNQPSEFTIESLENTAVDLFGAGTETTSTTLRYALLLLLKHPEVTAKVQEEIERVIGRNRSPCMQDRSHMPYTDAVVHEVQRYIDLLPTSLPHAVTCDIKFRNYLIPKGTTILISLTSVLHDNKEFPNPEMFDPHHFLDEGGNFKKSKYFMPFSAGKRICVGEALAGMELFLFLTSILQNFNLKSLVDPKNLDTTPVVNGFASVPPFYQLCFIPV
# Procedure, shortened: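 P450-Glo CYP2C9 system: proluciferin substrate with enzyme in mix containing 0.4% BSA, 10 min at room temperature, then NADPH regeneration solution added and incubated 1 h at 37C. Detection reagent stopped reaction; luminescence read after 20 min as RLU.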
# Potency is the fitted concentration of half-maximal effect; tags give direction and shape of the fitted curve.
compound,measurement,setting,value
COc1cc2c(cc1OC)CN(C(=O)/C=C/c1c(-c3ccccc3)n(C)c3ncccc13)CC2,Potency,[1],"inconclusive [inhibitor, partial curve, poor fit]"
same,Potency,[2],"inconclusive [inhibitor, partial curve]"
same,Potency,[3],inactive
same,Potency,[4],"inconclusive [activator, partial curve, poor fit]"
Cn1c2ccccc2c2c3c(c4c5ccccc5n(CCC#N)c4c21)CNC3=O,Potency,[5],active: 590 nM
same,Potency,[6],"inconclusive [cytotoxic, full curve]"
same,Potency,[7],"inconclusive [cytotoxic, full curve]"
same,Potency,[8],"inconclusive [cytotoxic, partial curve]"
same,Potency,[9],active: 5.44 µM
same,Potency,[10],"inconclusive [cytotoxic, partial curve]"
same,Potency,[11],"inconclusive [cytotoxic, full curve]"
same,Potency,[12],"inconclusive [inhibitor, partial curve, poor fit]"
same,Potency,[13],"inconclusive [inhibitor, partial curve]"
same,Potency,[14],"inconclusive [inhibitor, partial curve]"
same,Potency,[3],"inconclusive [inhibitor, full curve]"
same,Potency,UISO,active: 2.09 µM
same,Potency,WaGa,active: 6620 nM
CCOC(=O)C1(CCOc2ccccc2)CCN(Cc2ccc(O)c(Cl)c2)CC1,Potency,[4],inactive
COc1cc(-c2ccc(=O)[nH]n2)ccc1OC(F)F,Potency,[15],inactive
same,Potency,[16],"inconclusive [cytotoxic, partial curve, poor fit]"
same,Potency,[17],inactive
same,Potency,[9],inactive
same,Potency,[1],"inconclusive [inhibitor, partial curve, poor fit]"
same,Potency,[18],"inconclusive [inhibitor, partial curve, poor fit]"
same,Potency,UISO,"inconclusive [inhibitor, full curve]"
CS/C=C/C(=O)O[C@@H]1CCC2=CC(=O)C(=C(C)C)C[C@]2(C)[C@H]1C,Potency,[12],"inconclusive [inhibitor, single point]"
same,Potency,[2],inactive
CC1(CO)CCCC2(C)C1C(OC(=O)c1ccccc1)C=C1C(=O)OCC12O (stereo unspecified),Potency,[12],"inconclusive [inhibitor, partial curve, poor fit]"
same,Potency,[3],"inconclusive [inhibitor, partial curve]"
O=C(CCCCCCC(=O)Nc1cccnc1)NO,Potency,[5],active: 7430 nM
same,Potency,[6],active: 11.8 µM
same,Potency,[16],active: 6.07 µM
same,Potency,[7],active: 10.9 µM
same,Potency,[8],active: 4.69 µM
same,Potency,[10],active: 18.7 µM
same,Potency,[11],active: 11.8 µM
same,Potency,[2],inactive
C[C@H](NCc1ccc2c(c1)nc(NC(=O)c1ccc(-c3cn[nH]c3)s1)n2CCc1ccccc1)C(C)(C)C,Potency,[6],"inconclusive [cytotoxic, full curve, poor fit]"
same,Potency,[17],active: 833 nM
same,Potency,[7],active: 2.43 µM
same,Potency,[8],active: 2.96 µM
same,Potency,[10],active: 14.8 µM
same,Potency,[11],active: 2.35 µM
same,Potency,UISO,active: 6.62 µM
CCC(C)C(=O)OC1CC(O)C23C4OCC5(C(O)CC2C1(C)C(O)O4)C3C(=O)CC1(C)C(c2ccoc2)CC2OC215 (stereo unspecified),Potency,[3],inactive
C/C1=C/CCC2=CC(OC2=O)C(C)(C)/C=C/C1=O (stereo unspecified),Potency,[3],"inconclusive [inhibitor, partial curve, poor fit]"
CCNC(=O)Nc1ccc(-c2nc3c(c(N4CCOC[C@H]4C)n2)CCN(C2COC2)C3)cc1,Potency,[15],"inconclusive [cytotoxic, full curve]"
same,Potency,[5],active: 743 nM
same,Potency,[6],"inconclusive [cytotoxic, full curve]"
same,Potency,[17],"inconclusive [cytotoxic, full curve]"
same,Potency,[7],"inconclusive [cytotoxic, full curve]"
same,Potency,[8],"inconclusive [cytotoxic, full curve]"
same,Potency,[10],"inconclusive [cytotoxic, partial curve]"
same,Potency,UISO,active: 3.72 µM
same,Potency,WaGa,"inconclusive [inhibitor, full curve]"
Cc1nc(N)nc(N)c1-c1ccc(Cl)c(Cl)c1,Potency,[5],active: 299 nM
same,Potency,[6],"inconclusive [cytotoxic, full curve]"
same,Potency,[16],"inconclusive [cytotoxic, partial curve]"
same,Potency,[17],"inconclusive [cytotoxic, full curve]"
same,Potency,UISO,"inconclusive [inhibitor, full curve]"
same,Potency,WaGa,"inconclusive [inhibitor, full curve]"
